Laboratory results reported in the supplement of paper PMC9446081.
The campaign covered roughly 39,000 compounds. About 220 (0.56%) showed activity. Some of the results follow.
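Also: static incubation at 37 °C against the wild-type strain, values averaged over two biological replicates.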

What follows are compounds tested on Escherichia coli K-12 BW25113 (assay: relative growth (OD600 normalised to plate interquartile mean) (fraction); higher = less growth inhibition, active = 0.2 or less). Settings: 50 µM; LB; incubation time: overnight (16-24 h).
With COCC#Cc1cnc2c(c1)C(=O)N([C@@H](C)CO)C[C@@H](C)[C@H](CN(C)C(=O)Nc1ccccc1OC)O2 the relative growth was inactive: 1.04.
C[n+]1ccccc1C=NO.[Cl-] was tested, and the relative growth was inactive: 1.06.
In the case of C[C@@H]1CN([C@@H](C)CO)C(=O)c2cc(NC(=O)Nc3ccc(C(F)(F)F)cc3)ccc2O[C@@H]1CN(C)S(=O)(=O)c1ccc(F)cc1, the relative growth is reported as inactive: 0.997.
CO[C@@]1(CNC(=O)c2ccno2)CCSC1 was tested, and the relative growth was inactive: 1.02.
In the case of C[C@@H]1CN([C@@H](C)CO)C(=O)c2cccc(NC(=O)NC3CCCCC3)c2O[C@@H]1CN(C)Cc1ccc(C(=O)Nc2ccccc2N)cc1, the relative growth is reported as inactive: 0.998.
C[C@H]1CN([C@@H](C)CO)C(=O)c2c(c3ccccc3n2C)-c2ccccc2CO[C@@H]1CN(C)C(=O)Nc1ccc(F)cc1 was tested, and the relative growth was inactive: 1.01.
For C[C@H]1CN([C@@H](C)CO)C(=O)c2cc(NC(=O)Nc3cccc4ccccc34)ccc2O[C@@H]1CN(C)C(=O)Nc1ccccc1, the relative growth was inactive: 1.01.
C[C@H]1CN([C@@H](C)CO)C(=O)Cc2cc(NS(=O)(=O)c3cn(C)cn3)ccc2O[C@H]1CN(C)CC1CC1 was tested, and the relative growth was inactive: 0.99.
For C[C@H]1CN([C@@H](C)CO)C(=O)c2cc(C#CC3(O)CCCC3)cnc2O[C@H]1CN(C)C(=O)C1CCOCC1, the relative growth was inactive: 0.999.
With CCOc1ccc(Cc2nccc3cc(OCC)c(OCC)cc23)cc1OCC.Cl the relative growth was inactive: 0.761.
In the case of C[C@H](CO)N1C[C@H](C)[C@@H](CN(C)S(=O)(=O)c2ccc(F)cc2)Oc2c(NC(=O)C3CCOCC3)cccc2C1=O, the relative growth is reported as inactive: 0.996.
In the case of O=C(C[C@@H]1C[C@@H]2c3cc(NS(=O)(=O)c4ccc(F)cc4)ccc3O[C@@H]2[C@@H](CO)O1)NC1CCCCC1, the relative growth is reported as inactive: 1.02.
For C[C@H](CO)N1C[C@H](C)[C@H](CN(C)Cc2ccc(-c3ccccc3)cc2)Oc2ccc(NS(=O)(=O)c3cccs3)cc2C1=O, the relative growth was inactive: 0.957.
With C[C@@H]1CN([C@H](C)CO)C(=O)c2cccc(NS(=O)(=O)c3ccc(F)cc3)c2O[C@H]1CN(C)S(=O)(=O)c1ccccc1 the relative growth was inactive: 0.992.
Cc1noc(C)c1NC(=O)Nc1ccc2c(c1)C(=O)N([C@H](C)CO)C[C@@H](C)[C@H](CN(C)Cc1ccc(Cl)c(Cl)c1)OCCCC[C@H](C)O2 was tested, and the relative growth was inactive: 0.956.
In the case of C[C@@H]1CN([C@H](C)CO)C(=O)c2cccc(NC(=O)C3CCCCC3)c2O[C@H]1CN(C)Cc1ccc(C(F)(F)F)cc1, the relative growth is reported as inactive: 0.928.
For C[C@@H]1CN([C@H](C)CO)C(=O)Cc2cc(NS(=O)(=O)c3cn(C)cn3)ccc2O[C@H]1CN(C)C(=O)Nc1ccc2c(c1)OCO2, the relative growth was inactive: 1.03.
For C[C@@H]1CN([C@@H](C)CO)C(=O)c2cccc(NC(=O)Nc3cccc4ccccc34)c2O[C@H]1CN(C)S(=O)(=O)c1cccs1, the relative growth was inactive: 1.02.
With COc1ccccc1CNC(=O)C[C@H]1C[C@@H]2c3cc(NC(=O)NC4CCCC4)ccc3O[C@@H]2[C@H](CO)O1 the relative growth was inactive: 0.957.
For COc1ccc(NC(=O)Nc2ccc3c(c2)C(=O)N([C@H](C)CO)C[C@H](C)[C@H](CN(C)C(=O)Nc2c(C)noc2C)OCCCC[C@H](C)O3)cc1, the relative growth was inactive: 0.997.
For C[C@@H]1CN([C@H](C)CO)C(=O)c2cc(NC(=O)CCC(F)(F)F)ccc2O[C@@H](C)CCCCO[C@H]1CN(C)C(=O)Nc1ccc(C(F)(F)F)cc1, the relative growth was inactive: 1.02.
With C[C@H](CO)N1C[C@H](C)[C@H](CN(C)Cc2ccccc2)Oc2cc(C#Cc3ccccn3)ccc2S1(=O)=O the relative growth was inactive: 1.01.
CCC(=O)Nc1nc2[nH]c(COC)cc(=O)n2n1 was tested, and the relative growth was inactive: 0.944.
For C[C@@H]1CCCCO[C@H](CN(C)Cc2ccc3c(c2)OCO3)[C@@H](C)CN([C@H](C)CO)C(=O)c2cc(NC(=O)c3ccccc3)ccc2O1, the relative growth was inactive: 1.01.
With CCOC(=O)CCCCCC(=O)Nc1ccc2c(c1)C(=O)N([C@H](C)CO)C[C@@H](C)[C@@H](CN(C)C(=O)CCC(F)(F)F)OCCCC[C@H](C)O2 the relative growth was inactive: 0.998.
For C(=N\C1CCCCCCCCCCC1)/c1ccco1, the relative growth was inactive: 0.985.
In the case of N#Cc1ccc(O)cn1, the relative growth is reported as inactive: 1.03.
CCc1cc(Nc2nccc(-c3c(-c4ccc(OC)c(C(=O)Nc5c(F)cccc5F)c4)nc4ccccn34)n2)c(OC)cc1N1CCC(N2CCN(S(C)(=O)=O)CC2)CC1 was tested, and the relative growth was inactive: 1.02.
For Cl.NNc1nncc2ccccc12, the relative growth was inactive: 1.01.
With COc1cccc(S(=O)(=O)N2C[C@H](O)COC[C@@H]3O[C@@H](CC(=O)NCCCN4CCOCC4)CC[C@H]32)c1 the relative growth was inactive: 1.02.
With CO[C@@H](CN(C)C(=O)c1ccc2c(c1)OCO2)[C@@H](C)CN([C@@H](C)CO)S(=O)(=O)c1ccc(F)cc1 the relative growth was inactive: 1.03.
COc1ccc(CN(C)C[C@@H]2Oc3ccc(NC(=O)Nc4cccc5ccccc45)cc3CC(=O)N([C@@H](C)CO)C[C@@H]2C)cc1 was tested, and the relative growth was inactive: 0.982.
COCC(=O)Nc1ccc2c(c1)C(=O)N(C)C[C@@H](OC)[C@@H](C)CN(C(=O)c1ccccc1F)[C@@H](C)CO2 was tested, and the relative growth was inactive: 1.01.
In the case of C[C@@H]1CN([C@@H](C)CO)C(=O)c2cc(NS(=O)(=O)c3cn(C)cn3)ccc2O[C@@H]1CN(C)S(=O)(=O)c1cn(C)cn1, the relative growth is reported as inactive: 0.994.
COCCNC(=O)C[C@@H]1CC[C@@H]2[C@H](COC[C@H](O)CN2C(=O)Nc2ccccc2OC)O1 was tested, and the relative growth was inactive: 1.02.
With COCCNC(=O)C[C@@H]1CC[C@@H]2[C@H](COC[C@@H](O)CN2C(=O)Nc2ccccc2OC)O1 the relative growth was inactive: 0.974.
COc1ccc(CN2C[C@@H](C)[C@H](OC)CN(C)C(=O)c3cc(NC(=O)c4nc5ccccc5s4)ccc3OC[C@@H]2C)cc1 was tested, and the relative growth was inactive: 1.03.
CN1CCO[C@H]2CCN(C(=O)c3cn(C)cn3)C[C@H]21 was tested, and the relative growth was inactive: 1.01.
C[C@H]1CCCCO[C@H](CN(C)C)[C@@H](C)CN([C@@H](C)CO)C(=O)c2cc(NC(=O)Nc3ccc(C(F)(F)F)cc3)ccc2O1 was tested, and the relative growth was inactive: 0.947.
In the case of C=CCNC(=O)CSc1nc(=O)cc(N)[nH]1, the relative growth is reported as inactive: 1.02.
